# Out of some 310,000 compounds screened, about 14,000 (4.5%) showed an effect of 50% or more. The effect is printed as a negative number. This is one part of the list.
# Biological target: human ether-à-go-go-related gene (hERG) potassium channel (human, UniProt Q12809)
# Test: primary screen, population patch clamp on CHO cells stably expressing hERG
# 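Further: peak tail current of the secondary pulse compared with the same well before compound.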
# human ether-à-go-go-related gene (hERG) potassium channel, sequence (Q12809 whole entry, looked up): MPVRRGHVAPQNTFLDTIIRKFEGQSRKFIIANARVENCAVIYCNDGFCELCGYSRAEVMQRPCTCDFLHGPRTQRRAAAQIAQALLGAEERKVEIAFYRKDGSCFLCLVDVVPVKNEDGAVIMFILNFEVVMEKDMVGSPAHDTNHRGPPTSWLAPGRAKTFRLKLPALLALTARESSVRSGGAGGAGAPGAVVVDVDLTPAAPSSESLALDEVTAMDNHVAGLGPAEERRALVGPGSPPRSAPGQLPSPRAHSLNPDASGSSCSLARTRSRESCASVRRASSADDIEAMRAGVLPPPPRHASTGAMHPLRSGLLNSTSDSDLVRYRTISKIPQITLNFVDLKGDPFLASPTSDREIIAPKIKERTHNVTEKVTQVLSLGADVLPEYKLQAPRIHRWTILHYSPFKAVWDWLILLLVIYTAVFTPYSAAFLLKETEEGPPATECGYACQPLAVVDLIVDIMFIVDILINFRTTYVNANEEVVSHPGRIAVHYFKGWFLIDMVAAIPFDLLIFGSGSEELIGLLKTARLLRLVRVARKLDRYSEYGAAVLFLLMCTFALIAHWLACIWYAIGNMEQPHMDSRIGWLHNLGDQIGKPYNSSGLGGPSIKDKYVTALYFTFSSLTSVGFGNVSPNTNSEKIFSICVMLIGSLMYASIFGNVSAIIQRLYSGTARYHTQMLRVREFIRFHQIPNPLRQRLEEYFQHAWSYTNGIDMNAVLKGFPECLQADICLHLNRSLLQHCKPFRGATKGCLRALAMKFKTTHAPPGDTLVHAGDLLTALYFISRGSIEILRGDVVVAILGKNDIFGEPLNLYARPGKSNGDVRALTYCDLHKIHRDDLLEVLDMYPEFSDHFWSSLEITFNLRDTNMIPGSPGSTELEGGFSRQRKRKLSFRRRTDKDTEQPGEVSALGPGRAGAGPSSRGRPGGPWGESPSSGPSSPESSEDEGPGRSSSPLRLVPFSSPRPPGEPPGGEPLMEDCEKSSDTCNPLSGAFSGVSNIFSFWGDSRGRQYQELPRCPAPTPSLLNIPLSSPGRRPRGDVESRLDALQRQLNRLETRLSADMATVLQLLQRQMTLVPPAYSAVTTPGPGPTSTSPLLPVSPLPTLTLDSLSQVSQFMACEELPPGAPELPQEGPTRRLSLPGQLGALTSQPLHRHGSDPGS
row,Structure (SMILES),"hERG current change (%, negative = inhibition) at 10uM [%]"
1,Cc1ccc(OCc2cc(C(=O)N3CCN(C4CCCCC4)CC3)no2)cc1C,-42.5
2,COc1ccc(CC(=O)NC(CC(=O)O)c2cccc([N+](=O)[O-])c2)cc1 (stereo not shown),17.4
3,NNc1nc(Nc2ccc([N+](=O)[O-])cc2)nc(N2CCCCCC2)n1,23.7
4,Cc1ccc(C)c(Oc2nnnn2-c2ccccc2)c1,-5.89
5,COc1ccc(S(=O)(=O)N2CCN(C(=O)c3cccs3)CC2)cc1,-32.4
6,CC1=C(C(N)=O)C(c2cccs2)n2ncnc2N1 (stereo not shown),4.49
7,O=C(CSCc1ccccc1Br)N/N=C/c1ccccc1C(=O)O,24.3
8,O=C1[C@H]2[C@@H](c3ccc(F)cc3)N3C(=O)N(c4cccc(Cl)c4)C(=O)[C@@]3(Cc3ccccc3)[C@H]2C(=O)N1C1CCCCC1,5.3
9,O=C(Nc1ccccc1F)C1CCCN(S(=O)(=O)c2ccc(-n3cnnn3)cc2)C1 (stereo not shown),13.7
10,CC(=O)/C(N=Nc1ccc(-n2ccc(C(F)(F)F)n2)cc1)=C(\C)O,2.31
11,O=C(Nc1ccccc1C(=O)Nc1nnc(C(F)(F)F)s1)c1ccccc1,28.4
12,O=C(Oc1ccccc1Cl)C1CCN(C(=O)c2ccc(F)cc2)CC1,-16.3
13,Cc1ccsc1C(=O)Nc1cccc(-n2cnnn2)c1,-8.26
14,COc1ccc(CCNC(=O)C2CC(=O)N(CCc3ccccc3)C2)cc1OC (stereo not shown),6.16
15,Cc1ccc(CN2CCC(=O)N2)cc1,19.9
16,O=C(COC(=O)/C=C/c1cccc(Cl)c1)NC1CCCC1,13
17,Cc1c([N+](=O)[O-])cc(C(=O)N2CCOCC2)cc1[N+](=O)[O-],0.522
18,Fc1ccc(Nc2nc(-c3ccncc3)nc3ccccc23)cc1F,4.83
19,O=C(NCCN1CCCC1)C1CC(=O)N(C2CCCCC2)C1 (stereo not shown),14.1
20,O=C(O)c1ccccc1SCC(=O)N1CCc2ccccc21,13.4
21,Cc1cccc(NC(=O)CN2C(=O)N/C(=C/c3ccc(C)o3)C2=O)c1,10.1
22,C=CCNc1nc(C(=O)OCC(=O)c2ccc(F)cc2)cs1,-4.15
23,O=[N+]([O-])CC1(n2nc3ccccc3n2)CCCCC1,0.687
24,CC(=O)N(CCS(=O)(=O)c1ccc(Cl)cc1)Cc1cccs1,-0.348
25,CCOc1ccc(N2CC(C(=O)Nc3ncccc3C)CC2=O)cc1 (stereo not shown),-8.66
26,Cc1ccc(S(=O)(=O)N(C)C2(C)CCS(=O)(=O)C2)cc1 (stereo not shown),-4.03
27,Cc1cc(Nc2cccc(C)c2C)n2nc(C)nc2n1,-11.9
28,CC(NC(=O)CCCCCCN1C(=O)c2ccccc2C1=O)c1ccc2c(c1)CCCC2 (stereo not shown),-3.24

row,Structure (SMILES),"hERG current change (%, negative = inhibition) at 10uM [%]"
1,Cc1ccc(NS(=O)(=O)c2ccc(C)c(C(=O)N3CCOCC3)c2)cc1,5.4
2,CC(=O)OCc1ccccc1Sc1ccccc1C(=O)NCc1ccccc1,-20.5
3,CC(C)CN1CCC(C(=O)NCC2CCCO2)CC1.O=C(O)C(=O)O (stereo not shown),-3.21
4,CCOC(=O)C1CCCN(c2c(NCCCN(CC)c3cccc(C)c3)c(=O)c2=O)C1 (stereo not shown),-32.7
5,c1ccc2c(c1)nc(N1CCOCC1)c1nncn12,-5.44
6,CSCCC(Nc1ccc(S(=O)(=O)N2CCOCC2)cc1[N+](=O)[O-])C(=O)OCC(=O)N(C(C)C)C(C)C (stereo not shown),-23.6
7,Cc1ccc2nc(-c3ccc(NC(=S)NC(=O)CC(C)C)cc3)sc2c1,2.02
8,O=C(CN1C(=O)C2C3C=CC(C3)C2C1=O)OCC(=O)c1ccc([N+](=O)[O-])cc1 (stereo not shown),18
9,CN(C)C(=O)OCc1c(-c2ccccc2)ncc2ccccc12,-6.88
10,CCOc1cc(C)c(S(=O)(=O)Nc2ccc3cn[nH]c3c2)cc1C,25.2
11,O=C(c1ccc(Br)o1)N1CCN(Cc2ccc3c(c2)OCO3)CC1,-33.7
12,CC(=O)c1ccc(N2CCN(c3ccc(S(=O)(=O)NCCN(C)C)cc3[N+](=O)[O-])CC2)cc1,-23.2
13,CN(C)S(=O)(=O)c1ccc(C(=O)Nc2nnc(Cc3ccccc3)s2)cc1,4.59
14,CCC(Sc1nc(=O)cc(N)n1-c1cccc(C)c1)C(=O)Nc1cc(C)on1 (stereo not shown),6.89
15,CCc1nc(NCC2CCCO2)c(C#N)c2c1COC(C)(C)C2 (stereo not shown),-7.98
16,COC(=O)c1c(NC(C)=O)sc(Cc2ccccc2)c1C,7.36
17,O=C(c1cccs1)N1CCN(C/C=C/c2ccccc2)CC1,-41.7
18,CCCc1cc(=O)oc2cc(OCC(=O)N3CCN(Cc4ccc5c(c4)OCO5)CC3)ccc12,-57
19,CC(C)OC(=O)CCCCCN1C(=O)CSC1=S,-7.33
20,NC(=O)c1nsc(C(=O)N(c2cccc(F)c2)C(C(=O)NCc2ccccc2)c2ccc(O)cc2)c1N (stereo not shown),-22.4
21,O=C(C1CCCN(S(=O)(=O)c2ccc([N+](=O)[O-])cc2)C1)N1CCCCC1 (stereo not shown),-62
22,COc1ccc(C(=O)O/N=C(\N)c2ccccc2)cc1OC,8.87
23,N#CC1=C(N)NC(SCC(=O)Nc2ccccc2)=C(C#N)C12CCCCC2,-7.22
24,CCOc1cc2[nH]c(=S)n(C3CC3)c(=O)c2cc1OCC,18.3
25,C=C1CCC2[C@](C)(CO[C@@H]3O[C@H](CO)[C@@H](O)[C@H](O)[C@H]3O)CCC[C@@]2(C)[C@@H]1CCC1=CCOC1=O (stereo partly shown),17
26,CC(C)(C)C(=O)N1CCC(O)(CS(=O)(=O)c2ccc(Cl)c(Cl)c2)CC1,-5.3
27,Cc1cccc(C(=O)Nc2ccnc(-c3ccncc3)n2)c1,-30.5

# — publication PMC4336329 (PLoS ONE, 2015)
